The supplement of paper PMC11417369
The list shows a part of the results.

Tested on: PfSIP2 AP2 domain 1 (GST-tagged)
Assay: gcPBM binding intensity (ln(normalized median fluorescence intensity)); higher = stronger DNA binding
How it was run: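 Plasmodium falciparum DNA-binding domains carrying a GST tag were expressed in E. coli and applied for 1 h, at about 25 μg on average, to an Agilent 4 × 180k array. The array held primer-extended double-stranded 36-bp intergenic genomic probes together with negative controls, and binding took place in 1× PBS with 1% milk, 0.2 mg/ml BSA, 0.5% salmon testes DNA and 0.03% Triton X-100. An Alexa488 anti-GST antibody detected bound protein, and the array was scanned at 488 nm. Binding intensity is taken as the highest Masliner-normalised natural-log median intensity across replicate spots of either probe orientation.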

Sequence | gcPBM binding intensity (ln)
TTATAAATTCAATGTACTACACAAAATGAATTTAAT [XGTACX_site6683] | 6.82
TACAGACATAGACACACACACACGCATAAAAAAAAA [CACACA_site6820] | 7.3
TTCCTATAAAAAAACACACACATATAAATATAAATA [CACACA_site7154] | 7.18
TGTGCTCGCTATTACACACTCATTGGGATAAAATTG [CACACA_site2029] | 7.14
TACATAAACATTTATACACACATTATATATACATAT [CACACA_site8028] | 7.13
TGGCTTATTCAGAAATGTACACATATAAATATATAT [XGTACX_site3765] | 7.11
TTTCTTTTAATTATCCGTACACAAACAATAAAATAA [XGTACX_site7841] | 7.57
AAAATAATATATGTATGTACACAATTATTTATAAGT [XGTACX_site7267] | 7.12
TGAATAAATAAGATACGTACACACATATACAAAATA [XGTACX_site7758] | 7.06
AAATAAATAAATAGAGTGCATATATATATATATTTT | 8.61
CTTTTTATTTATCATACACACACAGAAAAAAAAAAA [CACACA_site7935] | 7.34
ATATACAAAGGATTAACACACATATTATTATAGATA [CACACA_site6966] | 6.9
AATTTTTAGAAGAACACACACATATATATTATGACC [CACACA_site246] | 7.18
ATTATGCACAGACACACACACACACTACTAAAAAAT [CACACA_site7252] | 7.88
ATAGGAGAAAAAGAATGTACGTATGATGTTGAAAAT [XGTACX_site7779] | 7.28
AAAAAAAATAAAAATATATATATATATATATAAATA [GTGCAC_negctrl_site676] | 7.39
AAGCATTTTTTTTAAAGCCTGTTCATCATCCTTACC [CACACA_negctrl_site129] | 6.94
ACCGTGGGAGGACACACACACACACGCACATATATA [CACACA_site6289] | 7.55
AAATAACTTTTAAATACACACGTAAAATATATTGTG [CACACA_site9085] | 7.02
TACATTATAAATATTACACACTTTATAAAATAATAA [CACACA_site6096] | 6.96
TCCTTTTTTTTTTATGCACACACAATTATACATTCC [CACACA_site9287] | 7.84
ATAATATTTTTATGTACACACCTTAATCCTTAAAAG [CACACA_site5881] | 7.08

Sequence | gcPBM binding intensity (ln)
TTAACCACTAAAAGTACACACATATATACATATATA [CACACA_site3912] | 7.29
TCTATTAATTAATATACACACATTATATATATATAT [CACACA_site8815] | 9.54
AATATATATATATATATATTTTTGTTAGAATATGGA [CACACA_negctrl_site212] | 7.45
AAATATTACATACACGCACACATTAAAATATTTAAA [CACACA_site5440] | 7.16
ATGTACCTTCAAACTACACACAAATGAAGGAACACA [CACACA_site3330] | 7.18
ATCTAATAAAAATACACACACATATGGTTTGTGAAT [CACACA_site6962] | 6.83
ATATAGAATGTTTACACACGCAATAAATATATATAT [CACACA_site217] | 8.65
GCGTATCATTTTAAAACACACAGGATTTTATAAGTA [CACACA_site1225] | 7.03
ATGGTATAAAAAAATACACACTTATTTATATTCTTA [CACACA_site6370] | 6.84
TGTAGTCTGGAGAAGAGTACACAGTATCTGGTAGCT [XGTACX_site2036] | 6.79
TTAAAAAATCACAACACACACACACGCAAAAAAAAA [CACACA_site6793] | 7.17
AAAAATAACATATAAACACACATATAGATTTATATA [CACACA_site7738] | 6.83
ACCATATAAAGTTAGGTGCATTTGTATGTATCTTAC | 9.18
TCTTGTTCGCCCTATTGTACAAACATATATTGTGAT [XGTACX_site2884] | 7.42
TTATTTTGATCTGGTTGTACATATAATATATAGTGG [XGTACX_site357] | 7.19
ATTAATTTGATTTTAATAAGAATATTTGTGGGGAAT [GTGCAC_negctrl_site198] | 7.03
TTTTATTTTTGTTGGTCCCTCATTTAAGTTAATAAA [TGCATGCA_negctrl_site465] | 7.22
ATATTGATTTGTGGCACACATATAATATATTCCTAT [CACACA_site3046] | 6.91
TTTTCAATATATATATGCTGAATTTATAATTTGTAT [CACACA_negctrl_site1774] | 6.89
TGAATAATAAAAAATACACACACATATATATATATT [CACACA_site9146] | 7.02
ATATATACATACATATGTACATATGTAGATATATTT [XGTACX_site1230] | 7.19
ATTTTTTTTGTTTATTCTTATGTGGTTATTAAATTA [CACACA_negctrl_site1000] | 7.44
